Data published in the supplement of paper PMC8728848.
Some of the results follow.

Columns and labels:
Experiment in all cases: glycan array binding signal (z-score within array); higher = stronger binding
Conditions in all cases: glycan notation: IUPAC condensed, linker removed
[1] = target: Fuc(a1-2)[GalNAc(b1-3)]Gal
Summary of the method: (§1)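 Arrays were curated from the Consortium for Functional Glycomics database, 3228 in total, and kept only where the protein sequence was available. Binding is expressed as a within-array Z-score. This score was averaged across arrays of the same protein sequence at different concentrations or buffers and across linkers, and negative values can be read as non-binding.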

Fuc(a1-3)GlcNAc = target: Fuc(a1-3)GlcNAc
Summary of the method: as §1

[2] = target: Fuc(a1-3)[Gal(b1-4)]Glc6S
Summary of the method: as §1

[3] = target: Fuc(a1-3)[Gal(b1-4)]GlcNAc
Summary of the method: as §1

[4] = target: Fuc(a1-3)[Gal(b1-4)]GlcNAc(b1-2)Man
Summary of the method: as §1

[5] = target: Fuc(a1-3)[Gal(b1-4)]GlcNAc(b1-2)Man(a1-3)[Fuc(a1-3)[Gal(b1-4)]GlcNAc(b1-2)Man(a1-6)]Man(b1-4)GlcNAc(b1-4)GlcNAc
Summary of the method: as §1

[6] = target: Fuc(a1-3)[Gal(b1-4)]GlcNAc(b1-2)Man(a1-3)[Fuc(a1-3)[Gal(b1-4)]GlcNAc(b1-2)Man(a1-6)]Man(b1-4)GlcNAc(b1-4)[Fuc(a1-6)]GlcNAc
Summary of the method: as §1

[7] = target: Fuc(a1-3)[Gal(b1-4)]GlcNAc(b1-3)Gal(b1-3)[Fuc(a1-4)]GlcNAc
Summary of the method: as §1

[8] = target: Fuc(a1-3)[Gal(b1-4)]GlcNAc(b1-3)Gal(b1-4)[Fuc(a1-3)]GlcNAc
Summary of the method: as §1

[9] = target: Fuc(a1-3)[Gal(b1-4)]GlcNAc(b1-3)Gal(b1-4)[Fuc(a1-3)]GlcNAc(b1-3)Gal(b1-4)[Fuc(a1-3)]GlcNAc
Summary of the method: as §1

[10] = target: Fuc(a1-3)[Gal(b1-4)]GlcNAc(b1-3)GalNAc
Summary of the method: as §1

[11] = target: Fuc(a1-3)[Gal(b1-4)]GlcNAc(b1-6)GalNAc
Summary of the method: as §1

[12] = target: Fuc(a1-3)[Gal(b1-4)]GlcNAc(b1-6)[Gal(b1-3)GlcNAc(b1-3)]Gal(b1-4)Glc
Summary of the method: as §1

[13] = target: Fuc(a1-3)[Gal(b1-4)]GlcNAc6S
Summary of the method: as §1

[14] = target: Fuc(a1-3)[Gal3S(b1-4)]Glc
Summary of the method: as §1

[15] = target: Fuc(a1-3)[Gal3S(b1-4)]GlcNAc
Summary of the method: as §1

[16] = target: Fuc(a1-3)[Gal3S(b1-4)]GlcNAc6S
Summary of the method: as §1

[17] = target: Fuc(a1-3)[GalNAc(b1-4)]GlcNAc
Summary of the method: as §1

[18] = target: Fuc(a1-3)[GalNAc(b1-4)]GlcNAc6S
Summary of the method: as §1

Fuc(a1-4)GlcNAc = target: Fuc(a1-4)GlcNAc
Summary of the method: as §1

Fuc(b1-3)GlcNAc = target: Fuc(b1-3)GlcNAc
Summary of the method: as §1

Gal(a1-2)Gal = target: Gal(a1-2)Gal
Summary of the method: as §1

Gal(a1-3)Gal = target: Gal(a1-3)Gal
Summary of the method: as §1

Gal(a1-3)Gal(b1-3)GlcNAc = target: Gal(a1-3)Gal(b1-3)GlcNAc
Summary of the method: as §1

[19] = target: Gal(a1-3)Gal(b1-3)GlcNAc(b1-2)Man
Summary of the method: as §1

[20] = target: Gal(a1-3)Gal(b1-3)GlcNAc(b1-2)Man(a1-3)[Gal(a1-3)Gal(b1-3)GlcNAc(b1-2)Man(a1-6)]Man(b1-4)GlcNAc(b1-4)GlcNAc
Summary of the method: as §1

[21] = target: Gal(a1-3)Gal(b1-3)GlcNAc(b1-3)GalNAc
Summary of the method: as §1

[22] = target: Gal(a1-3)Gal(b1-3)GlcNAc(b1-6)GalNAc
Summary of the method: as §1

[23] = target: Gal(a1-3)Gal(b1-3)[Fuc(a1-4)]GlcNAc(b1-2)Man(a1-3)[Gal(a1-3)Gal(b1-3)[Fuc(a1-4)]GlcNAc(b1-2)Man(a1-6)]Man(b1-4)GlcNAc(b1-4)GlcNAc
Summary of the method: as §1

Gal(a1-3)Gal(b1-4)Glc = target: Gal(a1-3)Gal(b1-4)Glc
Summary of the method: as §1

Gal(a1-3)Gal(b1-4)GlcNAc = target: Gal(a1-3)Gal(b1-4)GlcNAc
Summary of the method: as §1

[24] = target: Gal(a1-3)Gal(b1-4)GlcNAc(b1-2)Man
Summary of the method: as §1

[25] = target: Gal(a1-3)Gal(b1-4)GlcNAc(b1-2)Man(a1-3)[Gal(a1-3)Gal(b1-4)GlcNAc(b1-2)Man(a1-6)]Man(b1-4)GlcNAc(b1-4)GlcNAc
Summary of the method: as §1

[26] = target: Gal(a1-3)Gal(b1-4)GlcNAc(b1-3)GalNAc
Summary of the method: as §1

[27] = target: Gal(a1-3)Gal(b1-4)GlcNAc(b1-6)GalNAc
Summary of the method: as §1

[28] = target: Gal(a1-3)Gal(b1-4)[Fuc(a1-3)]GlcNAc
Summary of the method: as §1

[29] = target: Gal(a1-3)Gal(b1-4)[Fuc(a1-3)]GlcNAc(b1-2)Man(a1-3)[Gal(a1-3)Gal(b1-4)[Fuc(a1-3)]GlcNAc(b1-2)Man(a1-6)]Man(b1-4)GlcNAc(b1-4)GlcNAc
Summary of the method: as §1

B1: AFL5 (Aspergillus fumigatus), Q4WB00 (protein)
chain: MDNFMEMTKKLGHQPELLRLRALDATYDDALEGKLVVAPLDMSEPGKKILDSGTADGTWLRNVRSKQSVPHDYYGSDVEGELFPKDPDGITYFAHSFKDPWPQQYLGFFDLVHIRGSLAGSAPEGPAPVIQNLTTLLKPGGWVQLMEMNAFSPPPNGPAMTDFAKMASEMFTGIGVGDFANNNKSMLEDAGLKNVQEKRVIVNLGKKAKPELHDQSIHGVTGPIVPLTSVARTVKSSFTGEQLDALPARVKEELETEGGQVEMIIAFGQKA
**Q.** For B1, which “glycan array binding signal (z-score)” value [1] is on record?
**A.** -0.258

**Q.** What about the “glycan array binding signal (z-score)” value (Fuc(a1-3)GlcNAc) of the same binder?
**A.** -0.058

**Q.** And the “glycan array binding signal (z-score)” value [2]?
**A.** 0.457

**Q.** What about the “glycan array binding signal (z-score)” value [3] of the same binder?
**A.** -0.414

**Q.** And the “glycan array binding signal (z-score)” value [4]?
**A.** -0.758

**Q.** What about the “glycan array binding signal (z-score)” value [5] of the same binder?
**A.** 0.048

**Q.** And the “glycan array binding signal (z-score)” value [6]?
**A.** 0.779

**Q.** And the “glycan array binding signal (z-score)” value [7]?
**A.** -0.27

**Q.** What about the “glycan array binding signal (z-score)” value [8] of the same binder?
**A.** -0.011

**Q.** And the “glycan array binding signal (z-score)” value [9]?
**A.** -0.509

**Q.** And the “glycan array binding signal (z-score)” value [10]?
**A.** -0.016

**Q.** And the “glycan array binding signal (z-score)” value [11]?
**A.** -0.3

**Q.** And the “glycan array binding signal (z-score)” value [12]?
**A.** 0.59

**Q.** What about the “glycan array binding signal (z-score)” value [13] of the same binder?
**A.** -0.084

**Q.** And the “glycan array binding signal (z-score)” value [14]?
**A.** 0.237

**Q.** And the “glycan array binding signal (z-score)” value [15]?
**A.** 0.045

**Q.** What about the “glycan array binding signal (z-score)” value [16] of the same binder?
**A.** 0.356

**Q.** And the “glycan array binding signal (z-score)” value [17]?
**A.** 0.094

**Q.** And the “glycan array binding signal (z-score)” value [18]?
**A.** 0.169

**Q.** What about the “glycan array binding signal (z-score)” value (Fuc(a1-4)GlcNAc) of the same binder?
**A.** -0.245

**Q.** What about the “glycan array binding signal (z-score)” value (Fuc(b1-3)GlcNAc) of the same binder?
**A.** 0.113

**Q.** And the “glycan array binding signal (z-score)” value (Gal(a1-2)Gal)?
**A.** -0.725

**Q.** And the “glycan array binding signal (z-score)” value (Gal(a1-3)Gal)?
**A.** 0.258

**Q.** What about the “glycan array binding signal (z-score)” value (Gal(a1-3)Gal(b1-3)GlcNAc) of the same binder?
**A.** -0.285

**Q.** And the “glycan array binding signal (z-score)” value [19]?
**A.** -0.35

**Q.** What about the “glycan array binding signal (z-score)” value [20] of the same binder?
**A.** -0.1

**Q.** And the “glycan array binding signal (z-score)” value [21]?
**A.** -0.056

**Q.** And the “glycan array binding signal (z-score)” value [22]?
**A.** -0.289

**Q.** What about the “glycan array binding signal (z-score)” value [23] of the same binder?
**A.** 0.159

**Q.** And the “glycan array binding signal (z-score)” value (Gal(a1-3)Gal(b1-4)Glc)?
**A.** -0.149

**Q.** What about the “glycan array binding signal (z-score)” value (Gal(a1-3)Gal(b1-4)GlcNAc) of the same binder?
**A.** -0.152

**Q.** What about the “glycan array binding signal (z-score)” value [24] of the same binder?
**A.** -0.183

**Q.** And the “glycan array binding signal (z-score)” value [25]?
**A.** 0.997

**Q.** What about the “glycan array binding signal (z-score)” value [26] of the same binder?
**A.** -0.442

**Q.** What about the “glycan array binding signal (z-score)” value [27] of the same binder?
**A.** -0.748

**Q.** What about the “glycan array binding signal (z-score)” value [28] of the same binder?
**A.** 21.5

**Q.** And the “glycan array binding signal (z-score)” value [29]?
**A.** 0.707
